Experimental data taken from PubChem BioAssay AID686978 (National Center for Advancing Translational Sciences (NCATS), 2013).
Out of some 420,000 compounds screened, about 64,000 (15%) were called active. The shares of active, inactive and inconclusive entries below differ from those in the screen. Calls come from the whole dose curve; as a rule, active = well fitted inhibition curve with a large enough effect; inconclusive = small, poorly fitted or top-dose-only effect; inactive = flat fitted curve, though single readings scatter. Potencies of inconclusive entries are left out as doubtful fits.
% is set by controls: 0 for no effect and ±100 for the full control effect; potency is the fitted concentration of half-maximal effect; tags give direction and shape of the fitted curve.

Experiment: qHTS for Inhibitors of human tyrosyl-DNA phosphodiesterase 1 (TDP1): qHTS in cells in absence of CPT; note: nearly all actives have a fitted effect of over 55% in size
Details: DT40 Tdp1-/- hTDP1 cells, no CPT, ATP luminescence, 48 h; activity change, negative = growth inhibition: at 46.2 µM (top of the series) unless noted
How it was run: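 Compound effects on proliferation are scored in DT40 Tdp1-/-;hTDP1 cells in the absence of CPT. ATP levels (CellTiter-Glo luminescence) are recorded after a ≥48 hr, 37 °C incubation.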
With `CC(C)CC(=O)Nc1ccc(Cc2ccncc2)cc1` the Potency was inconclusive [inhibitor, single point]. In the case of `CC(C)(C)OC(=O)N1CCC(c2c(C(=O)N3CCc4ccccc4C3)cnn2-c2ccc(Cl)cc2)CC1`, the Potency is reported as inconclusive [inhibitor, single point]. For `COc1ccc(CC(=O)NNC(=S)NCC2CC2)cc1OC`, the Potency was inconclusive [inhibitor, single point]. With `CCS(=O)(=O)Nc1cc(-c2cn3ccc(C)cc3n2)ccc1C` the Potency was active: 20.6 µM. With `Cc1noc(C)c1COc1ccc(C(=O)N2CCN(S(=O)(=O)c3ccccc3)CC2)cc1` the Potency was inconclusive [inhibitor, single point]. For `Cc1ccc(-c2nnn(CC(=O)N(c3cnc4ccccc4c3)C(C(=O)NC3CCCC3)c3ccncc3)n2)o1` (stereo not drawn), the Potency was inconclusive [inhibitor, single point]. With `O=C(NCc1ccccc1)C1=C[C@@H](C2CC2)C[C@@H](OCc2ccc(CO)cc2)O1` the Potency was inconclusive [inhibitor, single point]. For `N/C(=N\O)c1cn(Cc2ccccc2Cl)c2ccccc12`, the Potency was inconclusive [inhibitor, single point]. For `C=CCCC(=O)Nc1ccc(Br)cn1`, the Potency was active: 18.4 µM. For `COc1ccc(NC(=O)Nc2nc(C(N)C3CCCCC3)cs2)cc1` (stereo not drawn), the Potency was inconclusive [inhibitor, single point]. For `Cn1c(SCC(=O)c2ccc3c(c2)NC(=O)CO3)nc2ccccc21`, the Potency was inconclusive [inhibitor, single point]. With `CSc1ccccc1OCc1cc(C(=O)N(C)Cc2nonc2C)no1` the Potency was inconclusive [inhibitor, partial curve]. With `c1csc(CNc2nc(-c3ccc4c(c3)OCO4)nc3ccccc23)c1` the Potency was inconclusive [inhibitor, single point]. In the case of `CCCNc1c(N)n(-c2ccccc2)c(=O)[nH]c1=O`, the Potency is reported as active: 16.4 µM. With `CCOC(=O)c1cccc(NC(=O)CS(=O)(=O)Cc2nc(-c3cccc(OC)c3)oc2C)c1` the Potency was inconclusive [inhibitor, single point]. For `Cc1c(Cl)cccc1N(CC(=O)NC(C)c1ccccc1)S(C)(=O)=O` (stereo not drawn), the “activity change, negative = growth inhibition” value was inactive: -15.6%. For `Cc1cc(C)cc(C(=O)N2CC(=O)Nc3ccc(C)cc3C2c2ccccc2)c1` (stereo not drawn), the Potency was inconclusive [inhibitor, single point]. In the case of `COc1cc2c(cc1OC)/C(=C/C(=O)c1ccccc1F)NCC2`, the “activity change, negative = growth inhibition” value is reported as inactive: -22.4%. With `O=C(CN(c1ccccc1Cl)S(=O)(=O)c1ccccc1)NC1CC2CCC1C2` (stereo not drawn) the Potency was inconclusive [inhibitor, single point]. In the case of `CN(CC(=O)Nc1ccc(F)cc1)C(=O)COC(=O)CNC(=O)c1sc2ccccc2c1Cl`, the “activity change, negative = growth inhibition” value is reported as inactive: -2.62%. In the case of `S=C(NCC(c1cccnc1)N1CCOCC1)NC1CCCCC1` (stereo not drawn), the “activity change, negative = growth inhibition” value is reported as inactive: -14.7%. In the case of `CC(=O)Nc1ccc(/C=C/c2ccncc2)cc1`, the Potency is reported as inconclusive [inhibitor, single point]. With `CCNc1ccc(C(=O)N/N=C/c2c(C)nn(-c3ccccc3)c2N2CCCC2)cc1[N+](=O)[O-]` the Potency was inconclusive [inhibitor, single point]. With `COc1ccccc1NC(=S)NC(=O)CC(C)C` the Potency was inconclusive [inhibitor, single point]. With `Cc1ccc(C2C3=C(CC(C)(C)CC3=O)OC3=C2C(=O)CC(C)(C)C3)cc1` the “activity change, negative = growth inhibition” value was inactive: -11.6%. With `COc1ccc2[nH]cc(CCNC(=O)C3CCCCC3)c2c1` the Potency was inconclusive [inhibitor, partial curve, poor fit]. With `COc1ccc(NS(=O)(=O)c2ccc3c(c2)C(C(C)C)C(=O)N3)cc1` (stereo not drawn) the Potency was inconclusive [inhibitor, partial curve]. In the case of `Cc1ccc2c(c1)c1c3n2CCN(CC(O)CNC(C)C)C3CCC1` (stereo not drawn), the Potency is reported as inconclusive [inhibitor, single point]. In the case of `CCn1c(C)c(C2N3CC4(C)CN2CC(CC)(C3)C4=O)c2ccccc21` (stereo not drawn), the Potency is reported as inconclusive [inhibitor, single point]. In the case of `Cc1ccc(OCCC(=O)OCC(=O)N2CCN(S(=O)(=O)c3ccc(C)cc3)CC2)cc1`, the Potency is reported as inconclusive [inhibitor, partial curve]. In the case of `O=C(Nc1ccccc1Cl)c1csc(-c2cccnc2)n1`, the Potency is reported as inconclusive [inhibitor, single point]. With `CCc1nn(CC(=O)NCCC(C)C)c(=O)c2cc3occc3n12` the activity change, negative = growth inhibition was inconclusive: -17.3% [inhibitor]. In the case of `CC1(C)S[C@@H]2[C@H](NC(=O)[C@H](N)c3ccccc3)C(=O)N2[C@H]1C(=O)O`, the Potency is reported as “inactive”. With `Oc1ccc(Cl)cc1C1C=C(c2ccc3c(c2)OCO3)NC(c2ccc(Br)cc2)N1` (stereo not drawn) the Potency was inconclusive [inhibitor, single point]. With `COc1ccccc1-n1cnc2cc(C(=O)NCc3ccco3)ccc21` the Potency was inconclusive [inhibitor, single point]. In the case of `COc1cc(CCCN2C(=O)C(=O)NC[C@@H]2C(C)O)cc(OC)c1OC` (stereo partly drawn), the “activity change, negative = growth inhibition” value is reported as inactive: -4.28%. In the case of `CCN(CC)c1ccc2c(-c3ccc(S(=O)(=O)O)cc3S(=O)(=O)[O-])c3ccc(=[N+](CC)CC)cc-3oc2c1`, the Potency is reported as active: 7.31 µM. For `c1csc(-c2nn3c(C4CCCCC4)nnc3s2)c1`, the Potency was inconclusive [inhibitor, single point]. In the case of `O=C(CCS(=O)(=O)Cc1ccccc1F)NCCCN1CCCCC1`, the “activity change, negative = growth inhibition” value is reported as inactive: -11.3%. For `COc1ccc(C)cc1Nc1n[n+](-c2ccccc2)c(-c2cccc(Cl)c2Cl)s1`, the Potency was inconclusive [inhibitor, single point]. In the case of `CC(=O)N1CCC2(CC1)CN(C(c1ccccc1)c1ccccc1)C2`, the Potency is reported as inconclusive [inhibitor, single point]. With `COC(=O)c1sccc1S(=O)(=O)N(CC(=O)NCc1ccccc1)c1ccccc1` the Potency was inconclusive [inhibitor, single point]. With `Cc1ccc(C(=O)N2N=C(c3ccccc3O)CC2c2ccccc2)cc1` (stereo not drawn) the Potency was active: 20.6 µM.
